# Reference: PubChem BioAssay (NCATS)
# Inconclusive results, whose numbers are uncertain, are shown with a selection of clear calls. Potencies of inconclusive entries are doubtful fits and often do not repeat. Where a structure was tested more than once in an assay, its records may differ in their call. Calls of active or inactive are those of the source. Calls come from the whole dose curve; as a rule, active = well fitted cell-killing curve with a large enough effect; inconclusive = small, poorly fitted or top-dose-only effect, or effect the other way; inactive = no such curve, though single readings can be large or run the other way.
# Columns and labels:
# [1] = Viability qHTS for spleen associated tyrosine kinase inhibitor (SYKi) naive MV4-11 cells (AID 1963823); details: MV4-11 AML viability, CellTiter-Glo luminescence, 72 h; series mostly up to 45 µM; note: nearly all actives have a fitted effect of over 40% in size
# Method in brief: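 Seeding of 500 SYKi-naive MV4-11 cells per well onto pre-dispensed compounds preceded a 72 hr incubation at 37 C. Luminescent CellTiter-Glo signal, read after 10 min at room temperature, reflected viable cells.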
# [2] = Viability qHTS for spleen associated tyrosine kinase inhibitor (SYKi) drug resistant MV4-11 cells (AID 1963824); note: nearly all actives have a fitted effect of over 35% in size
# Method in brief: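 SYK inhibitor-resistant MV4-11 AML cells, 500 per well, added to predispensed compounds and incubated 72 hr at 37 C, 5% CO2. Viability measured by CellTiter-Glo luminescence after 10 min at room temperature.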
# Potency is the fitted concentration of half-maximal effect; tags give direction and shape of the fitted curve.
SMILES,Potency [1],Potency [2]
O=C(c1ccc(F)cc1)N1CCCC(c2nc(-c3ccc(F)cc3)no2)C1 (centres undefined),"inconclusive: 18.4 µM [cytotoxic, partial curve, poor fit]","inconclusive: 23.1 µM [cytotoxic, partial curve]"
CC(=O)OC1/C(C)=C/C(=O)C(OC(C)=O)C(C)(C)/C=C/C(C)C(=O)C2(OC(C)=O)CC(C)C(OC(=O)c3ccccc3)C12 (centres undefined),"inconclusive: 4.85 µM [cytotoxic, partial curve]","inconclusive: 3.85 µM [cytotoxic, partial curve]"
C/C=C(\C)C(=O)O[C@H]1C=C(CO)C(=O)[C@H](OC(C)=O)[C@H]1C(C)C,"inconclusive: 1.8 µM [cytotoxic, full curve]",active: 1.8 µM
CC(=O)Nc1ccc(NC(=S)NC(=O)c2ccc(C(C)(C)C)cc2)cc1,"inconclusive: 1.3 µM [cytotoxic, full curve]","inconclusive: 1.46 µM [cytotoxic, full curve]"
C=C1C(=O)O[C@H]2C1[C@H](OC(=O)/C(=C/CO)COC(=O)/C(C)=C/CO)CC(=C)[C@@H]1CC(=O)[C@@H](C)[C@@H]12 (some centres undefined),"inconclusive: 2.24 µM [cytotoxic, full curve]","inconclusive: 0.632 µM [cytotoxic, full curve]"
C=C1[C@@H](C)[C@H]2[C@H](Cc3c[nH]c4ccccc34)NC(=O)[C@]23C(=O)/C=C/C(=O)[C@H](O)/C(C)=C\[C@@H](C)C/C=C/[C@H]3[C@@H]1O,active: 2 µM,"inconclusive: 3.99 µM [cytotoxic, partial curve]"
COP(=O)(OC)OC(c1ccc(Cl)cc1)P(=O)(OC)OC (centres undefined),"inconclusive: 0.75 µM [cytotoxic, full curve, poor fit]","inconclusive: 37.6 µM [cytotoxic, single point]"
Cc1c(I)c(=O)n(-c2ccccc2)n1C,"inconclusive: 18.8 µM [cytotoxic, partial curve, poor fit]","inconclusive: 29.9 µM [cytotoxic, single point]"
O=C(O)C1=CO[C@@H](O[C@@H]2O[C@H](CO)[C@@H](O)[C@H](O)[C@H]2O)[C@@H]2C(CO)=CC[C@H]12,active: 10.1 µM and inactive,active: 12.8 µM and inactive
CC1CCCCN1S(=O)(=O)c1ccc(N2CCCC2=O)cc1 (centres undefined),"inconclusive: 29.1 µM [cytotoxic, single point]","inconclusive: 20.6 µM [cytotoxic, single point]"
CC(=O)O[C@H]1CC[C@@]2(C)C(CC[C@@H](C)[C@]23Cc2c(O)cc4c(c2O3)CN([C@@H](CCC(=O)O)C(=O)O)C4=O)C1(C)C (some centres undefined),inactive,"inconclusive: 0.0022 µM [rising, full curve, poor fit]"
CCNC(=O)[C@H]1O[C@H](n2cnc3c(NCC(c4ccccc4)c4ccccc4)nc(C(=O)NCCNC(=O)NC4CCN(c5ccccn5)CC4)nc32)[C@H](O)[C@@H]1O,"inconclusive: 9.2 µM [cytotoxic, partial curve]","inconclusive: 23.1 µM [cytotoxic, partial curve]"
C=C1[C@@H]2CC[C@@H]3[C@@](CCC4C(C(=O)O)(C(=O)O)C[C@@H](O[C@@H]5O[C@H](CO)[C@@H](O)[C@H](O)[C@H]5OC(=O)CC(C)C)C[C@]43C)(C2)[C@H]1O (some centres undefined),inactive,"inconclusive: 0.122 µM [cytotoxic, full curve, poor fit]"
COc1ccccc1-c1ccc(-c2cn(C(=O)N3CCCCC3Cc3ccccc3)nn2)cc1 (centres undefined),"inconclusive: 29.1 µM [cytotoxic, single point]",active: 14.6 µM
CC(=O)OC1C(OC(=O)c2ccccc2)C2C(C)(C)CC(=O)CC2(C)C23CCC(C)(C2)C(O)CC13 (centres undefined),"inconclusive: 2.24 µM [cytotoxic, partial curve, poor fit]","inconclusive: 1.59 µM [cytotoxic, partial curve, poor fit]"
CC1(C)SC2C(NC(=O)[C@H](NC(=O)N3CCNC3=O)c3ccccc3)C(=O)N2C1C(=O)O (some centres undefined),inactive,inactive
C=C1CCC2C(C)(C(=O)O)CCCC2(C)C1CCC1=CCOC1=O (centres undefined),inactive,"inconclusive: 1.61 µM [cytotoxic, partial curve, poor fit]"
